In PubChem BioAssay AID588795 (National Center for Advancing Translational Sciences (NCATS), 2011):
Among all 390,000 compounds or so, about 1,400 (0.36%) were called active. Inconclusive means that the source gave no clear call. Such entries were picked first, then a sample of the others. Calls come from the whole dose curve; as a rule, active = well fitted inhibition curve with a large enough effect; inconclusive = small, poorly fitted or top-dose-only effect; inactive = no such curve, though single readings can be large or run the other way. Potencies beside an inconclusive call are fits to weak or partial responses and may not hold up.

What follows are molecules tested against Flap endonuclease 1 (Homo sapiens) (UniProt P39748) (assay: qHTS Assay for the Inhibitors of Human Flap endonuclease 1 (FEN1).). Details: Recombinant FEN1 flap cleavage, fluorescence, 15 min; series mostly up to 114 µM.
UniProt P39748, sequence (P39748 whole entry, looked up): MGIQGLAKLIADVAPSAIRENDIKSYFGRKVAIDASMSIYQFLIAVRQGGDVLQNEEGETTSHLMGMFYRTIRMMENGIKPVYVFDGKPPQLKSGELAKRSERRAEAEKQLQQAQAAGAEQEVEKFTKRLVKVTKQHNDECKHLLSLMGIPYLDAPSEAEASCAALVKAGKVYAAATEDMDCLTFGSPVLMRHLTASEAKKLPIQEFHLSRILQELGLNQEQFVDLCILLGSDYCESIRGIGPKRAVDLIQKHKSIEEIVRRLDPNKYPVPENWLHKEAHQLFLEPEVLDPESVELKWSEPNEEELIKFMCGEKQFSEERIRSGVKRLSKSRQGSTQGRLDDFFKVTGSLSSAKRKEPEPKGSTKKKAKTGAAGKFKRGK
Summary of the method: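 Nuclease activity of 10 nM FEN1 was measured after 15 min of room-temperature exposure to titrated compounds, by adding 50 nM flap substrate and reading plates at 0 and 15 min.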
Note: nearly all actives have a fitted effect of over 65% in size.
Potency is the fitted concentration of half-maximal effect; tags give direction and shape of the fitted curve.

Row | Compound | Potency
1 | CCOc1ccc(CN(C(=O)c2oc3cc(C)ccc3c2C)C2CCS(=O)(=O)C2)cc1 (stereo unspecified) | inconclusive: 89.1 µM [inhibitor, partial curve, poor fit]
2 | CCCCCOP(=O)(OCCCCC)C1(NS(=O)(=O)c2ccccc2)C=CC(=O)c2ccccc21 (stereo unspecified) | inconclusive: 39.8 µM [inhibitor, partial curve, poor fit]
3 | COc1cc(OC)c(NC(=O)CCCn2nc(C)c3sc4ccccc4c3c2=O)cc1Cl | active: 35.5 µM
4 | Cc1cc2nc(N=C(N)N)nc(C)c2cc1C | active: 17.8 µM
5 | CC(C)C(=O)N1CCN(c2ccccc2NC(=O)c2ccco2)CC1 | inconclusive: 89.1 µM [inhibitor, single point]
6 | COc1cc2[nH]c(=O)n(Cc3ccc(C(=O)NCc4ccccc4)cc3)c(=O)c2cc1OC | inconclusive: 89.1 µM [inhibitor, single point]
7 | COc1ccc(SCC(CC(C)C)N2CCN(C)CCC2=O)cc1 (stereo unspecified) | inactive
8 | O=C1OC(c2ccccc2)(c2cc(Br)ccc2O)c2ccccc21 (stereo unspecified) | inconclusive: 79.4 µM [inhibitor, partial curve, poor fit]
9 | O=C1C(O)=C(O)C(=O)c2ccccc21 | inconclusive: 11.2 µM [inhibitor, partial curve, poor fit]
10 | COc1ccc2[nH]c3c(N4CCN(Cc5ccc6c(c5)OCO6)CC4)ncnc3c2c1 | inconclusive: 31.6 µM [inhibitor, full curve]
11 | O=C(Nc1ncc(Cc2ccccc2)s1)C1CCN(C(=O)c2ccco2)CC1 | inactive
12 | Cc1ccc(CSC2=Nc3sccc3C3=NC(=O)CN23)cc1 | inactive
13 | O=C(COC(=O)c1ccc([N+](=O)[O-])s1)NCCc1ccccc1 | inconclusive: 14.1 µM [inhibitor, partial curve, poor fit]
14 | CCOC(=O)CC(=O)CSc1nc(-c2ccccc2)cc(-c2ccccc2)c1C#N | inactive
15 | O=C(Oc1c(-c2ccccc2)oc2ccccc2c1=O)c1ccccc1 | inconclusive: 70.8 µM [inhibitor, partial curve, poor fit]
16 | Cc1nnc2sc(-c3ccc(NC(=O)c4ccc(-c5ccc(Cl)cc5Cl)o4)cc3)nn12 | inconclusive: 50.1 µM [inhibitor, partial curve]
17 | C=CCn1c(SCC#N)nc2ccc(Cl)cc2c1=O | inactive
18 | CCCN1C(=O)/C(=C\C=C2\N(CC)c3ccccc3C2(C)C)SC1=S | inconclusive: 3.98 µM [inhibitor, full curve]
19 | Cc1cc(/C=C(\C#N)C(=O)Nc2ccccc2)c(C)n1-c1cccnc1 | inactive
20 | CCOc1ccc(C(OC(=O)c2ccco2)C(=O)NCc2ccc(C)cc2)cc1 (stereo unspecified) | inconclusive: 89.1 µM [inhibitor, single point]
21 | COc1cc2c(=O)c(C(=O)c3ccc(C)c(C)c3)cn(Cc3ccccc3F)c2cc1OC | inactive
22 | O=c1[nH]c2ccc(S(=O)(=O)N3CCN(c4ccccc4)CC3)cc2[nH]c1=O | active: 56.2 µM

Row | Compound | Potency
23 | C#CCOc1ccc2c3c(c(=O)oc2c1)CCCC3 | inconclusive: 89.1 µM [inhibitor, partial curve, poor fit]
24 | Clc1ccc(OCCN2CCCCC2)cc1Cl | inactive
25 | Cc1ccc2sc(N(CCN(C)C)C(=O)c3ccc(S(=O)(=O)N4CC(C)OC(C)C4)cc3)nc2c1C (stereo unspecified) | inconclusive: 89.1 µM [inhibitor, partial curve, poor fit]
26 | CCOc1ccc(NC(=O)CCc2nnc3n(C)c(=O)c4sccc4n23)cc1 | inactive
27 | O=C(O)c1ccc2c(c1Nc1ccccc1)C(=O)c1ccccc1C2=O | inconclusive: 89.1 µM [inhibitor, single point]
28 | COc1ccc(Nc2nc(NN)nc(Nc3ccc(OC)cc3)n2)cc1 | inconclusive: 70.8 µM [inhibitor, partial curve, poor fit]
29 | O=C(NNc1c2ccccc2nc2ccccc12)c1cccc(O)c1 | inconclusive: 28.2 µM [inhibitor, partial curve]
30 | O=C(Cn1c(O)c(/C=C2\C=Nc3ccc(Br)cc32)sc1=O)N1CCCC1 | inactive
31 | C=CCNc1ncnc2c1[nH]c1ccc(C)cc12 | inconclusive: 50.1 µM [inhibitor, partial curve, poor fit]
32 | CNCCC(Oc1ccccc1OC)c1ccccc1 (stereo unspecified) | inconclusive: 0.0377 µM [inhibitor, full curve, poor fit]
33 | Cc1ccccc1S(=O)(=O)NCc1ccc(N2CCN(C)CC2)cc1 | inconclusive: 89.1 µM [inhibitor, single point]
34 | CCn1cc(C(=O)O)c(=O)c2cc(F)c(N3CCN(C(=S)NC(=O)c4ccc(Br)cc4)CC3)cc21 | inconclusive: 22.4 µM [inhibitor, partial curve, poor fit]
35 | Cc1nc(N=C(N)N)nc2c(C)cccc12 | active: 35.5 µM
36 | CN1CCN(C(=O)Cn2ncc3c4ccccc4n(Cc4ccc(Cl)cc4)c3c2=O)CC1 | inactive
37 | Cc1cccc(SCc2noc(C(=O)NCC3CCCO3)c2C(=O)O)c1 (stereo unspecified) | inactive
38 | Cc1ccc2c(c1)c1c3n2CCN(C(=O)c2ccc(C(F)(F)F)cc2)C3CCC1 (stereo unspecified) | inactive
39 | C=CCOc1ccc2c(=O)n(C)c3ccccc3c2c1 | inconclusive: 56.2 µM [inhibitor, partial curve]
40 | O=C(C[n+]1cc(Br)cc2ccccc21)c1ccccc1 | inactive
41 | COc1ccc(S(=O)(=O)c2nnn(-c3ccc(C(C)C)cc3)c2C)cc1 | inactive
42 | Cc1cc(C)c(S(=O)(=O)N2CCN(Cc3ccc4c(c3)OCO4)CC2)cc1C | inconclusive: 89.1 µM [inhibitor, partial curve, poor fit]
43 | Nc1nc(-c2ccccc2)[nH]c(=O)c1N | inconclusive: 79.4 µM [inhibitor, partial curve, poor fit]
44 | Cc1[nH]n(-c2ncc(-c3ccccc3)s2)c(=O)c1C(c1ccc(Br)cc1)C(C#N)C#N (stereo unspecified) | inconclusive: 89.1 µM [inhibitor, partial curve]

Row | Compound | Potency
45 | O=C(O)c1ccc2c(=O)n3c(nc2c1)/C(=C/c1ccc(C(F)(F)F)cc1)CC3 | inconclusive: 44.7 µM [inhibitor, partial curve, poor fit]
46 | N#C/C(=C\c1ccc(O)c([N+](=O)[O-])c1)c1nc2ccccc2s1 | inconclusive: 56.2 µM [inhibitor, partial curve, poor fit]
47 | COc1ccc(-c2c(-c3ccccc3)c(C(=O)C(=O)NCCCN(C)C)n3ccc4cc(OC)c(OC)cc4c23)cc1OC | active: 39.8 µM
48 | C#CCOCCOCCOCCNc1nc(N2CCN(C(=O)CCCCCCCCCCNC(=O)[C@H](CCCCN)n3cc(C)nn3)CC2)nc(N2CCN(C(=O)CCCCCCCCCCNC(=O)[C@@H]([C@H](C)O)n3cc(C)nn3)CC2)n1 | inconclusive: 89.1 µM [inhibitor, single point]
49 | COc1cc(O)c(C(CC(=O)N2CCN(c3ccccc3)CC2)c2ccc(N(C)C)cc2)c(OC)c1 (stereo unspecified) | inconclusive: 79.4 µM [inhibitor, partial curve, poor fit]
50 | CCc1ccc(S(=O)(=O)c2cn(CC)c3cc(N4CCCCC4)c(F)cc3c2=O)cc1 | inactive
51 | COc1cc(/C=C(\C#N)C(=O)N2CCOCC2)ccc1OCc1ccccc1 | inactive
52 | COc1cc(OC)cc(C(=O)OCC(=O)Nc2sccc2C(N)=O)c1 | inconclusive: 56.2 µM [inhibitor, partial curve, poor fit]
53 | O=C(OC(C(=O)Nc1cc(Cl)cc(Cl)c1)c1ccccc1)C1=COCCO1 (stereo unspecified) | inconclusive: 79.4 µM [inhibitor, single point]
54 | CCOc1ccc(CNC(=O)CCS(=O)(=O)c2cc3c4c(c2)CCN4C(=O)CC3)cc1OC | inactive
55 | COc1ccc(/C=N/NC(=O)c2[nH]nc3c2CCc2ccccc2-3)cc1OC | inconclusive: 89.1 µM [inhibitor, partial curve, poor fit]
56 | CCOC(=O)C1CCCN(C(=O)Cn2sc3nc(C)cc(C)c3c2=O)C1 (stereo unspecified) | inconclusive: 79.4 µM [inhibitor, partial curve]
57 | OC(Br)C(O)C(O)N1CCCc2ccccc21 (stereo unspecified) | inconclusive: 63.1 µM [inhibitor, partial curve, poor fit]
58 | Cc1cccc(NC(=O)Cc2ccc(-c3ccccc3)cc2)n1 | inconclusive: 89.1 µM [inhibitor, partial curve, poor fit]
59 | COCCCn1c(SCCc2ccccc2)nc2cc(OC)c(OC)cc2c1=N | inconclusive: 20 µM [inhibitor, partial curve, poor fit]
60 | Cc1c(Cl)sn(-c2ccc(Cl)cc2)c1=O | inconclusive: 89.1 µM [inhibitor, single point]
61 | COC(=O)/C(=C\C(=O)c1ccccc1)Nc1cccc(C(F)(F)F)c1 | inconclusive: 44.7 µM [inhibitor, partial curve]
62 | Nc1ccc(-c2nc3c(ccc4ccccc43)[nH]2)cc1 | inconclusive: 22.4 µM [inhibitor, full curve]
63 | C=C(C)C(=O)Nc1ccc2c(c1)OCCOCCOCCO2 | inconclusive: 50.1 µM [inhibitor, partial curve, poor fit]
64 | CC(Sc1nc2ncc(Cl)cc2[nH]1)C(=O)c1c(N)n(C)c(=O)n(C)c1=O (stereo unspecified) | inconclusive: 56.2 µM [inhibitor, partial curve, poor fit]
65 | COc1ccc(C2C(=O)N(C3CCCCC3)CC(=O)N2CCc2ccc(OC)c(OC)c2)cc1 (stereo unspecified) | inactive
66 | COc1ccc(N2CC(C(=O)Nc3nnc(SCC(=O)NCc4ccco4)s3)CC2=O)cc1 (stereo unspecified) | inactive
